Molecules are shown by their SMILES. About 540 (0.36%) of roughly 150,000 compounds showed an effect of 50% or more. Some of the results follow.

The assay deals with Plasmodium falciparum. The assay is described as follows: Primary screen in NF54 nanoGlo assay, in single point, at 2uM, 72h; a lower Z score goes with more inhibition. The class given is functional, Erythrocyte. The settings on record: timepoint 72 hour.
On to `C[C@@H](C1CC1)n1cc(NS(=O)(=O)C2CC2)cn1`, for which the “% Inhibition” value was 13% and the Z score was -1.55.

Take `CCc1noc(-c2cccnc2-n2cnc(C(=O)NCc3ccccc3F)c2)n1`: the “% Inhibition” value is 35% and the Z score was -3.92.

Take `CCO[C@@H](C)c1nc(CN(C)c2nc(C)nc(C)c2C)cs1`: the “% Inhibition” value is -9% and the Z score came to 1.

Regarding `COc1cc(N2CCC[C@@]3(CCC(=O)N(Cc4ccccn4)C3)C2)nc(N)n1`, the “% Inhibition” value stood at 7% and the Z score is -1.05.

As to `CCCc1nc(-c2cc3cccc(C)c3nc2NC2CCCC2)no1`, the “% Inhibition” value is recorded as -8% and the Z score stood at 1.27.

On to `Cc1cccc(C(=O)NCc2nc([C@H]3CC(=O)N(Cc4ccccc4)C3)no2)c1`, for which the “% Inhibition” value is -13% and the Z score is reported as 1.42.

`Cc1ccc(C)c(-c2cn3c(C(=O)N[C@@H](C)c4n[nH]c(C)n4)csc3n2)c1`: the “% Inhibition” value was -16% and the Z score is given as 1.57.

In the case of `Cc1cc(C(=O)NCCc2noc(C(C)C)n2)cc(C)n1`, the “% Inhibition” value is on record as -10% and the Z score is listed as 2.01.

With `CCN1C(=O)[C@@H](NC(=O)C(=O)NCc2cccnc2)c2cc(Br)ccc21`, the “% Inhibition” value is -12% and the Z score was found to be 1.28.

As to `Cc1nc(CNC(=O)N(C2CC2)[C@@H](C)C(C)C)sc1C`, the “% Inhibition” value was -11% and the Z score was found to be 0.9.

In the case of `COc1ccc(Nc2nc(Nc3ccc(OC)cc3)nc(N3CCN(c4ccccc4)CC3)n2)cc1`, the “% Inhibition” value was -18% and the Z score is 2.36.

`Cc1noc(C)c1Cn1nc2n(c1=O)C(=O)N(c1cccc(Cl)c1)C2`: the “% Inhibition” value came out at 7% and the Z score is -1.4.

For `CCCN(CC(F)F)C(=O)[C@H](C)NC(=O)c1ccoc1`, the “% Inhibition” value is on record as 4% and the Z score is recorded as -0.51.

Regarding `Cc1ccc(OS(=O)(=O)c2ccc3c(c2)NC(=O)CO3)c(Br)c1`, the “% Inhibition” value was -5% and the Z score came to 0.38.

`CCN1C(=O)C2(CCN(S(=O)(=O)c3c(C)nn(C)c3C)CC2)c2ccccc21`: the “% Inhibition” value is -2% and the Z score worked out at 0.29.

For the compound `CC(C)[C@H]1CN(C(=O)COCc2ccccc2)C[C@@H]1N(C)C`, the “% Inhibition” value was -19% and the Z score is reported as 2.18.

Regarding `O=C(c1cc2nc(C(F)F)cc(C(F)F)n2n1)N1CCCC1`, the “% Inhibition” value came out at 0% and the Z score is on record as -0.02.

Regarding `Cc1ccc(Oc2ncccc2CNC(=O)[C@H](C)N2CCCC2=O)cn1`, the “% Inhibition” value was -7% and the Z score amounted to 1.19.

As for `CN(C[C@H]1CCCOC1)c1nccn2ccnc12`, the “% Inhibition” value was -21% and the Z score is given as 2.76.

As to `CC1=CCN(S(=O)(=O)c2cccc(C(=O)Nc3cccnc3)c2)CC1`, the “% Inhibition” value is listed as -14% and the Z score turned out to be 2.46.

With `O=C(O)COc1ccccc1[C@H]1Nc2ccccc2C(=O)N1c1ccc2c(c1)OCO2`, the “% Inhibition” value was found to be 36% and the Z score was -3.03.

Consider `CCc1nnc(-c2nnc(NCCN(CC)CC)c3ccccc23)o1`, for which the “% Inhibition” value is on record as -8% and the Z score is reported as 0.89.

Turning to `CCc1noc2nc(C)nc(N3CCC[C@H](C(=O)NCCc4ccc(OC)c(OC)c4)C3)c12`, the “% Inhibition” value is given as 1% and the Z score is reported as -0.1.

`C[C@](O)(CNC(=O)Nc1ccn(CCC#N)n1)C1CCCCC1`: the “% Inhibition” value is reported as -9% and the Z score is recorded as 0.91.

In the case of `CCCN(Cc1ccsc1)S(=O)(=O)C1CC1`, the “% Inhibition” value was 14% and the Z score is -1.72.

In the case of `Cc1cc(CN(CC(=O)O)Cc2cccc(Br)c2)nn1C`, the “% Inhibition” value is recorded as -10% and the Z score came to 1.72.

`COc1ccc(Cl)cc1C(=O)Nc1nnc(-c2cc(C)oc2C)o1`: the “% Inhibition” value is reported as -10% and the Z score is recorded as 1.51.

With `CCOc1cc(CNCc2ccccn2)ccc1OCc1ccccc1`, the “% Inhibition” value was -5% and the Z score turned out to be 0.89.

Take `CC1(C)[C@@H](NC(=O)N2CCC[C@@H]2CS(C)(=O)=O)C[C@H]1Oc1ccccc1`: the “% Inhibition” value is -3% and the Z score is 0.3.

For `CCCc1sc(N(C(=O)CCc2ccccc2)c2ccc(OC)c(OC)c2)nc1-c1ccccc1`, the “% Inhibition” value stood at 2% and the Z score is recorded as -0.29.

For the compound `O=C(CN1C[C@@H]2CC[C@H]1CN(C(=O)C1CCC1)C2)NCc1ccccc1`, the “% Inhibition” value is reported as 3% and the Z score was -0.52.

For `NC(=O)c1csc(CN[C@H](c2ccc(F)c(Cl)c2)C2CC2)c1`, the “% Inhibition” value is listed as -11% and the Z score was 1.5.

For the compound `C[C@@H](c1nc(Cc2cccs2)nn1-c1cccnc1)N1CCOCC1`, the “% Inhibition” value stood at 7% and the Z score is -1.19.

As to `CC[C@@H](c1ccccn1)N(C)C(=O)c1ccnnc1`, the “% Inhibition” value is on record as -15% and the Z score is recorded as 1.97.

Take `C[C@@H](C(=O)N(C)Cc1cnc2ccccc2n1)N(C)C`: the “% Inhibition” value was -13% and the Z score was 2.41.

With `COc1ccc(NC(=O)N2C[C@@H]3C[C@H](C2)c2ccc(NC(=O)COc4ccccc4)c(=O)n2C3)cc1`, the “% Inhibition” value amounted to 3% and the Z score was -0.39.

Regarding `COc1ccc(CN(Cc2ccco2)C(=O)Nc2c(C)cccc2C)cc1OS(=O)(=O)c1ccc(F)cc1`, the “% Inhibition” value is given as -17% and the Z score is 1.54.

For `COc1ccccc1-c1cc2nc(C)cc(Nc3ccccc3)n2n1`, the “% Inhibition” value is listed as -13% and the Z score was 2.45.

For `COC(=O)c1ccc(-c2nccn2C[C@H]2CCOC2)cc1`, the “% Inhibition” value is reported as -17% and the Z score is 2.01.

As to `Cc1ncsc1C(=O)Oc1cncc(Cl)c1`, the “% Inhibition” value came to 0% and the Z score is listed as -0.02.

Regarding `NC(=NCCCc1ccccc1)NCCc1ccccn1`, the “% Inhibition” value is 3% and the Z score is given as -0.34.

In the case of `Cc1nc2c(-c3cccs3)cnn2c(C)c1C`, the “% Inhibition” value is -11% and the Z score is 1.35.

The values are drawn from ChEMBL document CHEMBL4888484, “Replenishing the malaria drug discovery pipeline: Screening and hit evaluation of the MMV Hit Generation Library 1 (HGL1) against asexual blood stage Plasmodium falciparum ,using a nano luciferase reporter read-out” (2022).
